# Assay results published in article PMC6919601, “Identification of Plasmodium dipeptidyl aminopeptidase allosteric inhibitors by high throughput screening” (PLoS ONE, 2019).
# The whole screen tested about 110,000 compounds, of which about 230 (0.21%) showed an effect of 50% or more. The list shows a part of the results.
# Molecular target: DPAP1 (Plasmodium falciparum, UniProt Q8IIJ9)
# Assay: primary screen, percent inhibition; read by cleavage of a fluorogenic dipeptide substrate; higher = more effect of the substance
# Set-up: species or system P. falciparum D10 trophozoite lysates; single well
# 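Also: 30 min substrate incubation versus DMSO and 10 µM JCP410 controls.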
# Chain of DPAP1 (Q8IIJ9 whole entry, looked up): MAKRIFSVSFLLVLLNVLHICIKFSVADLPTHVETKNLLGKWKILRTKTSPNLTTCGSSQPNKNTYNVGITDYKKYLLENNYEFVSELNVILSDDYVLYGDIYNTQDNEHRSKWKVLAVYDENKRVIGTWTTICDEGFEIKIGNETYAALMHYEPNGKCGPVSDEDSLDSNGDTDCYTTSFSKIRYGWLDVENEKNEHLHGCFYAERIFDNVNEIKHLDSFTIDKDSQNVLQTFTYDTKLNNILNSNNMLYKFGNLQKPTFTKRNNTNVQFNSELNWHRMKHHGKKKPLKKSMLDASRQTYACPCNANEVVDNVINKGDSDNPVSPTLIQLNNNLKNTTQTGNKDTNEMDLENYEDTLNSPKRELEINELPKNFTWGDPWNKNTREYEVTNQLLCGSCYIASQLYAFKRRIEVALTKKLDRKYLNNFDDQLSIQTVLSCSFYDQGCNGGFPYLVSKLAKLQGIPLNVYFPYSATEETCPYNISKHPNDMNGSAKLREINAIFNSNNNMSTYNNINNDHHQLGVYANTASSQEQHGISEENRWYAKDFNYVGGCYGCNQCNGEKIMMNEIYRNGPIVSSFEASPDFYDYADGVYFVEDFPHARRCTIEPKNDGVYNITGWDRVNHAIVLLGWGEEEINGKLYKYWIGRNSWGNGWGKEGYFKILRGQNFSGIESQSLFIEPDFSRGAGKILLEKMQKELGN
row,SMILES,% Inhibition @ 10 uM
1,Clc1cccc(OCCCCCCN2CCCC2)c1,-7.8%
2,Cc1ccc(C2=NS(=O)(=O)N(C)C(C(=O)N3CCN(C(=O)c4cccc(F)c4)CC3)=C2)cc1,6.98%
3,Cc1nc2sccc2c(=O)n1-c1cccc(Cl)c1,2.25%
4,O=C(c1cccc(Cl)c1)N(Cc1ccccc1)c1ccccn1,1.67%
5,CCc1ccc(Oc2nc3c(C)cccn3c(=O)c2/C=C(\C#N)C(=O)NCCCOC)cc1,5.21%
6,Oc1nc2c(s1)C(c1cccnc1)C1C3CCC(C3)C1S2 (stereo not shown),-5.36%
7,O=C(Cn1cnc2ccc(Cl)cc2c1=O)Nc1ccc2ccccc2c1,-2.83%
8,OCCNc1nc(N2CCOCC2)ncc1F,3.15%
9,Cc1ccccc1/C=C/C(=O)NCC(=O)N1CCC(N(C)C2CCCCC2C)CC1 (stereo not shown),-2.85%
10,O=C(Cc1c(C(=O)O)[nH]c2ccccc12)NC1CCCC1,2.17%
11,O=C1c2ccc(F)cc2C(=O)N1C1CCCCCCC1,-1.35%
12,Cc1cc(=O)oc2c(CN3CCN(CCO)CC3)c(O)ccc12,1.25%
13,CCCCc1cc(=O)oc2cc(OC(C)C(=O)O)ccc12 (stereo not shown),-9.24%
14,Cc1ccc(-n2c(SCC(=O)NCCc3ccccc3)nc3nnc(C)c-3c2N)cc1Cl,4.35%
15,Cc1c(C(=O)N(Cc2ccccc2F)C2CCS(=O)(=O)C2)oc2cc(Br)ccc12 (stereo not shown),2.02%
16,C#CC(C)(C)N1CCC(OC(C)=O)CC1,-0.969%
17,NC(=O)c1c(NC(=O)CCC2CCCC2)sc2c1CCCC2,-0.48%
18,COc1ccc(CN2CCC(N3CCCCC3)CC2)c(OC)c1C,-10.2%
19,Cc1cc(C)n2nc(SCc3cc(=O)n4c(C)cccc4n3)nc2n1,-2.14%
20,COc1ccc(CNCc2c(C(=O)O)n(Cc3ccccc3Cl)c3ccccc23)cc1,5.09%
21,CSCC[C@H](NC(=O)c1ccccc1)C(=O)NCC#N,-0.214%
22,O=C(O)c1cc2nc(-c3ccc(Cl)c(Cl)c3)cc(C(F)(F)F)n2n1,7.59%
23,O=C(Nc1ccc2c(c1)OCCO2)c1ccc(C2SCC(=O)N2CCc2ccccc2)cc1 (stereo not shown),0.907%
24,O=C(O)c1cccc(CN2C(=O)SC(Nc3cccc(C(=O)O)c3)C2=O)c1 (stereo not shown),-10.2%
25,O=C(C1CCC(CNc2c(N3CCCC3)c(=O)c2=O)CC1)N1CC=C(c2ccccc2)CC1 (stereo not shown),-3.96%

row,SMILES,% Inhibition @ 10 uM
1,COc1ccccc1CNS(=O)(=O)c1c(C)nc(O)nc1O,0.992%
2,CCCCNC(=O)C1c2ccccc2C(=O)N(CC(C)C)C1c1cccs1 (stereo not shown),3.84%
3,CCOC(=O)c1cc(-c2nnc(-c3ccc(Cl)cc3)o2)c(C)nc1C,3.63%
4,COc1cc([N+](=O)[O-])cc2c1NC(c1ccc(Cl)cc1Cl)=NO2,-2.63%
5,COc1cccc(C2C(C#N)=C(N)Oc3[nH]nc(C(C)(C)C)c32)c1 (stereo not shown),-0.759%
6,Cc1ccsc1CCNC(=O)CCc1nc2cccnc2n1-c1ccccc1,-4.74%
7,CC1CCN(Cc2nc3c(c(=O)n(C)c(=O)n3C)n2CCN2CCOCC2)CC1,0.627%
8,O=C(O)CCC(=O)/N=C1\SC2CS(=O)(=O)CC2N1Cc1ccccc1Cl (stereo not shown),0.558%
9,COc1ccccc1-c1c(C)nn2c(SCC(=O)NCC(C)c3ccccc3)cc(C)nc12 (stereo not shown),-1.7%
10,CO/C(O)=C/c1nc2ccccc2nc1O,-5.33%
11,Cc1ccc2[nH]c3c(c2c1)CCCC3NCCCN(C)C (stereo not shown),-6.7%
12,COc1ccc(/C=C/C(=O)c2c(O)nc(C)c3c2CCCC3)cc1,1.83%
13,COC(=O)C1=CN(C23CC4CC(CC(C4)C2)C3)C=C(C(=O)OC)C1c1cc(OC)c(OC)c(OC)c1,-5.28%
14,O=C(Cn1cnc2c(oc3ccccc32)c1=O)N1CCOCC1,-1.19%
15,C=CCOc1c(Cl)cc(/C=C2/NC(=O)N(c3ccccc3)C2=O)cc1OC,-5.45%
16,Cc1ccc(Cc2nc3ccccc3[nH]2)cc1,-4.18%
17,Cc1cc2c(c(=O)n1Cc1cccnc1)C(c1ccc3c(c1)OCO3)C(C#N)=C(N)O2 (stereo not shown),-1.38%
18,COc1ccc(OCCCc2c(C)n[nH]c2C)cc1,-1.62%
19,Cc1ccc(OC(C)C(=O)Nc2cccc(C)c2C)cc1 (stereo not shown),-4.02%
20,CCCCCC(=O)Nc1ccc(N(CC)CC)cc1,1.28%
21,COC(=O)C1C(=O)N(c2ccc(C)cc2)C(c2ccccc2)=NC1=S (stereo not shown),-5.48%
22,COc1cccc(CNCc2cccnc2)c1OCc1ccccc1,-1.65%
23,CC1(C)OC(=O)C(=Cc2c[nH]c3ccccc23)C(=O)O1,16.1%
24,O=C(NC(Cc1cc(I)c(O)c(I)c1)C(=O)N1CCN(S(=O)(=O)c2ccccc2)CC1)N1CCOCC1 (stereo not shown),-2.35%
25,CCc1ccc(C2CC(c3ccccc3Cl)n3nnnc3N2)cc1 (stereo not shown),4.67%

row,SMILES,% Inhibition @ 10 uM
1,Cc1cc(C)c(NC(=O)CC(=O)Nc2c(C)cc(C)cc2C)c(C)c1,-8.12%
2,O=C(NCc1cccs1)c1cc2c(s1)CS(=O)(=O)C2,-10.4%
3,CCOC(=O)c1[nH]c2ccccc2c1NC(=O)c1cc(C)cc(C)c1,0.121%
4,Cc1ccc([C@H]2C(C#N)=C(N)Oc3cc(C)oc(=O)c32)o1,-0.142%
5,COc1cc(/C=N/n2c(C)nnc2C)ccc1O,-3.98%
6,COc1ccc(C2/C(=C(/O)OCc3ccccc3)C(C)=Nc3ncnn32)cc1 (stereo not shown),6.07%
7,COc1ccccc1OC1OC(CO)C(O)C(O)C1O (stereo not shown),-5.9%
8,O=C(CCCc1c[nH]c2ccccc12)N1CCN(S(=O)(=O)c2ccc(F)cc2)CC1,-1.46%
9,Cc1ccc(S(=O)(=O)N(CC(=O)Nc2cccc(F)c2)C2CCCCC2)cc1,0.964%
10,COc1ccc(N(CC(=O)Nc2cc(C)ccc2C)S(C)(=O)=O)cc1,-0.796%
11,COc1ccc(N(CC(=O)NC2CCCC2)S(=O)(=O)c2ccccc2)cc1OC,-4.43%
12,Cc1n[nH]c(C)c1S(=O)(=O)N1CCCC(C(=O)NCc2cccs2)C1 (stereo not shown),0.708%
13,COc1ccc(Br)cc1C1=N/C(=C\C(C)=C\c2ccccc2)C(=O)O1,10.5%
14,CC(C)(C)Nc1nc(NC(C)(C)C)nc(N2CCOCC2)n1,4.22%
15,N#CC1=C(N)Oc2[nH]nc(C34CC5CC(CC(C5)C3)C4)c2C1c1ccc(F)cc1 (stereo not shown),-8.85%
16,O=C(Nc1ccc([N+](=O)[O-])cc1Br)C1CC1c1ccccc1 (stereo not shown),2.38%
17,CC12CCC(=O)N1c1ccccc1C(=O)N2c1ccccc1 (stereo not shown),-4.41%
18,CCCCN1C(=O)c2[nH]nc(-c3ccccc3O)c2C1c1ccc(OCC)c(OC)c1 (stereo not shown),0.366%
19,O=C(NCC1CCCO1)C1CCC(CNS(=O)(=O)c2cccc3nsnc23)CC1 (stereo not shown),4.54%
20,O=C(NC1CCCCC1)/C(=C/c1ccccc1)NC(=O)c1ccccc1,10.4%
21,O=C(CCNC(=O)Cn1ccc2ccccc2c1=O)NCCCCN1CCOCC1,7.39%
22,Cc1ccc(-c2nc(-c3ccccc3Cl)no2)cc1,-2.63%
23,NC(=S)N/N=C/c1ccc(-c2cccc(C(=O)O)c2)o1,2.95%
24,O=C1OCCC1C(=O)c1ccccc1 (stereo not shown),2.38%
25,CC(CCc1ccc(O)cc1)NC1CCCCCCC1 (stereo not shown),1.29%

row,SMILES,% Inhibition @ 10 uM
1,COc1ccc(C2=NN(C(C)=O)C(c3cc4cccc(C)c4nc3Cl)C2)cc1OC (stereo not shown),-1.06%
2,Cn1nnc2c(N3CCC4(CC3)OCCO4)nc(Cc3ccc(Cl)cc3Cl)nc21,-1.47%
3,Cc1ccnc(NC(=O)COc2ccccc2)c1,0.583%
4,CC(C)(C)OC(=O)N1CCN(c2ccc(-c3cc(F)cc(N4CCCCC4C(=O)NCC#N)c3)cc2)CC1 (stereo not shown),-1.41%
5,Cc1ccc(NC2SC(=O)N(Cc3cccc(C(=O)O)c3)C2=O)cc1 (stereo not shown),-11%
6,COC(=O)c1c(-c2ccccc2)nn(-c2ccccc2)c1C(=O)OC,-5.5%
7,Cc1c2ccc(Cl)cc2s[n+]1C,0.627%
8,O=C(O)c1ccccc1C(=O)Nc1cc(Cl)cc(Cl)c1,-6.36%
9,Cc1ccc(C2c3c(oc4ccccc4c3=O)C(=O)N2CCCN2CCOCC2)cc1 (stereo not shown),-2.91%
10,Cc1ccc(NC(=O)CC2Sc3ccc(C(F)(F)F)cc3NC2=O)c(C)c1 (stereo not shown),-0.0938%
11,CCCCOc1ccc(C(=O)N(Cc2cccc(F)c2)C2CCS(=O)(=O)C2)cc1 (stereo not shown),3.62%
12,CCC(C(=O)NCc1ccc(C)o1)n1nc(C)c2c(C)n(-c3ccccc3)nc2c1=O (stereo not shown),-10.2%
13,CC(=O)c1c(C)c[nH]c1C,4.35%
14,O=C(CCSCCC(=O)N1CCCCCC1)N1CCCCCC1,-1.36%
15,Cc1cc(C)c2nc(O)c(NC(N)=S)nc2c1,-3.13%
16,COc1cc(CN2CCCCCC2)cc2c1OCO2,5.03%
17,Cc1noc2ncnc(N3CCCC(C(=O)NCCCN(C)Cc4ccccc4)C3)c12 (stereo not shown),0.802%
18,Cc1ccc2c(c1)cc1c(=O)n(Cc3cccc(C(F)(F)F)c3)nc(C)n12,3%
19,Cc1cccc2c(C(=O)O)cc(-c3cc4ccccc4o3)nc12,0.709%
20,Cc1nc2n(CC(=O)N3CCCCC3)c3ccccc3n2n1,3.59%
21,N#Cc1c(NC(=O)CN2CCCCC2)sc2c1CCCC2,6.11%
22,CN1CCCN(Cc2ccc(F)cc2F)CC1,3.25%
23,CCn1c2ccccc2c2cc(CNC3CCCC3)ccc21,0.219%
24,Cc1ccc(C)c(C2C(C#N)=C(N)Oc3[nH]nc(-c4ccc5c(c4)OCO5)c32)c1 (stereo not shown),-1.06%
25,CCN1CCN(c2nc(-c3cccc(Cl)c3)c3c(n2)-c2ccccc2OC3)CC1,5.29%
